# Source: the supplement of paper PMC8728848
# The list shows a part of the results.
# Columns and labels:
# Test in all cases: glycan array binding signal (z-score within array); higher = stronger binding
# Conditions in all cases: glycan notation: IUPAC condensed, linker removed
# [1] = molecular target: Gal(b1-4)GlcNAc(b1-3)Gal(b1-4)GlcNAc(b1-2)[Gal(b1-4)GlcNAc(b1-3)Gal(b1-4)GlcNAc(b1-6)]Man(a1-6)[Gal(b1-4)GlcNAc(b1-3)Gal(b1-4)GlcNAc(b1-2)Man(a1-3)]Man(b1-4)GlcNAc(b1-4)[Fuc(a1-6)]GlcNAc
# Method in brief: (§1)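 Arrays were curated from the Consortium for Functional Glycomics database, 3228 in total, and kept only where the protein sequence was available. Binding is expressed as a within-array Z-score. This score was averaged across arrays of the same protein sequence at different concentrations or buffers and across linkers, and negative values can be read as non-binding.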
# [2] = molecular target: Gal(b1-4)GlcNAc(b1-3)Gal(b1-4)GlcNAc(b1-3)Gal(b1-4)GlcNAc
# Method in brief: as §1
# [3] = molecular target: Gal(b1-4)GlcNAc(b1-3)Gal(b1-4)GlcNAc(b1-3)Gal(b1-4)GlcNAc(b1-2)Man(a1-3)[Gal(b1-4)GlcNAc(b1-3)Gal(b1-4)GlcNAc(b1-3)Gal(b1-4)GlcNAc(b1-2)Man(a1-6)]Man(b1-4)GlcNAc(b1-4)GlcNAc
# Method in brief: as §1
# [4] = molecular target: Gal(b1-4)GlcNAc(b1-3)Gal(b1-4)GlcNAc(b1-3)Gal(b1-4)GlcNAc(b1-2)Man(a1-3)[Gal(b1-4)GlcNAc(b1-3)Gal(b1-4)GlcNAc(b1-3)Gal(b1-4)GlcNAc(b1-2)Man(a1-6)]Man(b1-4)GlcNAc(b1-4)[Fuc(a1-6)]GlcNAc
# Method in brief: as §1
# [5] = molecular target: Gal(b1-4)GlcNAc(b1-3)Gal(b1-4)GlcNAc(b1-3)Gal(b1-4)GlcNAc(b1-2)[Gal(b1-4)GlcNAc(b1-3)Gal(b1-4)GlcNAc(b1-3)Gal(b1-4)GlcNAc(b1-6)]Man(a1-6)[Gal(b1-4)GlcNAc(b1-3)Gal(b1-4)GlcNAc(b1-3)Gal(b1-4)GlcNAc(b1-2)Man(a1-3)]Man(b1-4)GlcNAc(b1-4)[Fuc(a1-6)]GlcNAc
# Method in brief: as §1
# [6] = molecular target: Gal(b1-4)GlcNAc(b1-3)Gal(b1-4)GlcNAc(b1-3)Gal(b1-4)GlcNAc(b1-3)Gal(b1-4)GlcNAc(b1-2)Man(a1-3)[Gal(b1-4)GlcNAc(b1-3)Gal(b1-4)GlcNAc(b1-3)Gal(b1-4)GlcNAc(b1-3)Gal(b1-4)GlcNAc(b1-2)Man(a1-6)]Man(b1-4)GlcNAc(b1-4)GlcNAc
# Method in brief: as §1
# [7] = molecular target: Gal(b1-4)GlcNAc(b1-3)Gal(b1-4)GlcNAc(b1-3)Gal(b1-4)GlcNAc(b1-3)Gal(b1-4)GlcNAc(b1-2)Man(a1-3)[Gal(b1-4)GlcNAc(b1-3)Gal(b1-4)GlcNAc(b1-3)Gal(b1-4)GlcNAc(b1-3)Gal(b1-4)GlcNAc(b1-2)Man(a1-6)]Man(b1-4)GlcNAc(b1-4)[Fuc(a1-6)]GlcNAc
# Method in brief: as §1
# [8] = molecular target: Gal(b1-4)GlcNAc(b1-3)Gal(b1-4)GlcNAc(b1-3)Gal(b1-4)GlcNAc(b1-3)Gal(b1-4)GlcNAc(b1-2)[Gal(b1-4)GlcNAc(b1-3)Gal(b1-4)GlcNAc(b1-3)Gal(b1-4)GlcNAc(b1-3)Gal(b1-4)GlcNAc(b1-6)]Man(a1-6)[Gal(b1-4)GlcNAc(b1-3)Gal(b1-4)GlcNAc(b1-3)Gal(b1-4)GlcNAc(b1-3)Gal(b1-4)GlcNAc(b1-2)Man(a1-3)]Man(b1-4)GlcNAc(b1-4)[Fuc(a1-6)]GlcNAc
# Method in brief: as §1
# [9] = molecular target: Gal(b1-4)GlcNAc(b1-3)Gal(b1-4)GlcNAc(b1-3)Gal(b1-4)GlcNAc(b1-3)Gal(b1-4)GlcNAc(b1-3)Gal(b1-4)GlcNAc(b1-2)Man(a1-3)[Gal(b1-4)GlcNAc(b1-3)Gal(b1-4)GlcNAc(b1-3)Gal(b1-4)GlcNAc(b1-3)Gal(b1-4)GlcNAc(b1-3)Gal(b1-4)GlcNAc(b1-2)Man(a1-6)]Man(b1-4)GlcNAc(b1-4)GlcNAc
# Method in brief: as §1
# [10] = molecular target: Gal(b1-4)GlcNAc(b1-3)Gal(b1-4)GlcNAc(b1-3)Gal(b1-4)GlcNAc(b1-3)Gal(b1-4)GlcNAc(b1-3)Gal(b1-4)GlcNAc(b1-2)Man(a1-3)[Gal(b1-4)GlcNAc(b1-3)Gal(b1-4)GlcNAc(b1-3)Gal(b1-4)GlcNAc(b1-3)Gal(b1-4)GlcNAc(b1-3)Gal(b1-4)GlcNAc(b1-2)Man(a1-6)]Man(b1-4)GlcNAc(b1-4)[Fuc(a1-6)]GlcNAc
# Method in brief: as §1
# [11] = molecular target: Gal(b1-4)GlcNAc(b1-3)Gal(b1-4)GlcNAc(b1-3)Gal(b1-4)GlcNAc(b1-3)Gal(b1-4)GlcNAc(b1-3)Gal(b1-4)GlcNAc(b1-2)[Gal(b1-4)GlcNAc(b1-3)Gal(b1-4)GlcNAc(b1-3)Gal(b1-4)GlcNAc(b1-3)Gal(b1-4)GlcNAc(b1-3)Gal(b1-4)GlcNAc(b1-6)]Man(a1-6)[Gal(b1-4)GlcNAc(b1-3)Gal(b1-4)GlcNAc(b1-3)Gal(b1-4)GlcNAc(b1-3)Gal(b1-4)GlcNAc(b1-3)Gal(b1-4)GlcNAc(b1-2)Man(a1-3)]Man(b1-4)GlcNAc(b1-4)[Fuc(a1-6)]GlcNAc
# Method in brief: as §1
# [12] = molecular target: Gal(b1-4)GlcNAc(b1-3)Gal(b1-4)GlcNAc(b1-3)Gal(b1-4)GlcNAc(b1-3)Gal(b1-4)GlcNAc(b1-3)Gal(b1-4)GlcNAc(b1-3)Gal(b1-4)GlcNAc(b1-2)Man(a1-3)[Gal(b1-4)GlcNAc(b1-3)Gal(b1-4)GlcNAc(b1-3)Gal(b1-4)GlcNAc(b1-3)Gal(b1-4)GlcNAc(b1-3)Gal(b1-4)GlcNAc(b1-3)Gal(b1-4)GlcNAc(b1-2)Man(a1-6)]Man(b1-4)GlcNAc(b1-4)GlcNAc
# Method in brief: as §1
# [13] = molecular target: Gal(b1-4)GlcNAc(b1-3)Gal(b1-4)GlcNAc(b1-3)GalNAc
# Method in brief: as §1
# [14] = molecular target: Gal(b1-4)GlcNAc(b1-3)Gal(b1-4)GlcNAc(b1-3)[Gal(b1-4)GlcNAc(b1-3)Gal(b1-4)GlcNAc(b1-6)]GalNAc
# Method in brief: as §1
# [15] = molecular target: Gal(b1-4)GlcNAc(b1-3)Gal(b1-4)GlcNAc(b1-6)[Gal(b1-3)]GalNAc
# Method in brief: as §1
# [16] = molecular target: Gal(b1-4)GlcNAc(b1-3)Gal(b1-4)[Fuc(a1-3)]GlcNAc(b1-3)Gal(b1-4)[Fuc(a1-3)]GlcNAc
# Method in brief: as §1
# [17] = molecular target: Gal(b1-4)GlcNAc(b1-3)GalNAc
# Method in brief: as §1
# [18] = molecular target: Gal(b1-4)GlcNAc(b1-3)[Fuc(a1-3)GlcNAc(b1-6)]Gal(b1-4)Glc
# Method in brief: as §1
# [19] = molecular target: Gal(b1-4)GlcNAc(b1-3)[Gal(b1-4)GlcNAc(b1-6)]Gal(b1-4)GlcNAc
# Method in brief: as §1
# [20] = molecular target: Gal(b1-4)GlcNAc(b1-3)[GlcNAc(b1-6)]Gal(b1-4)GlcNAc
# Method in brief: as §1
# [21] = molecular target: Gal(b1-4)GlcNAc(b1-6)Gal(b1-4)GlcNAc
# Method in brief: as §1
# [22] = molecular target: Gal(b1-4)GlcNAc(b1-6)GalNAc
# Method in brief: as §1
# [23] = molecular target: Gal(b1-4)GlcNAc(b1-6)[Gal(b1-3)]GalNAc
# Method in brief: as §1
# [24] = molecular target: Gal(b1-4)GlcNAc(b1-6)[Gal(b1-4)GlcNAc(b1-3)]GalNAc
# Method in brief: as §1
# [25] = molecular target: Gal(b1-4)GlcNAc6P
# Method in brief: as §1
# [26] = molecular target: Gal(b1-6)Gal
# Method in brief: as §1
# [27] = molecular target: Gal3S(b1-3)GalNAc
# Method in brief: as §1
# [28] = molecular target: Gal3S(b1-3)GlcNAc
# Method in brief: as §1
# [29] = molecular target: Gal3S(b1-3)[Fuc(a1-4)]GlcNAc
# Method in brief: as §1
# [30] = molecular target: Gal3S(b1-4)Glc
# Method in brief: as §1
binder,measurement,setting,value
Blon2468mut (Bifidobacterium longum) (protein) MTFIKQMMPRYVASMTAGIVAAAMAATCAFAPVANADAVSPTQETIQSTGRHFMVYYRAWRDVTMKGVNTDLPDDNWISMYDIPYGVDVVNIFSYVPSGQEEQAQPFYDKLKSDYAPYLHSRGIKLVRGIDYTGVAVNGFRTFMKEQNKTESEATEADYDAYAKQVIDKYMISVGLDGLDIDMQAHPNDADVKISDNVIRALSKHIGPKSAKPDTTMFLYDTNGSYLNPFKNVAECFDYVAYQQYGSSSDRTARAAADYQPYIGNEFVPGLTFPEEGDMNNRWYDATEPYEESHFYQVASYVREHNLGGMFVYALDRDGRNYDEDLRRIVPSNLLWTKTAIAESEGMALDTAKTAANHYLDRMSLRQVIDDNAASADKARDMVGKAANLYETNKAVLGGDYGEGFSNTYDPTLEAGLLGIDISVLQQQIDKSSEIIGADTAESDAKTALRMARDAAIDGLTGKIYTADQVSAWSQALKAALDATVPVPTPDSTDQNGNRDKVTNHKVQGQPKQLSATGISTDIIVAVGVTLAIAGVALSLSRKLS,glycan array binding signal (z-score),[1],-0.047
same,glycan array binding signal (z-score),[2],-0.064
same,glycan array binding signal (z-score),[3],-0.061
same,glycan array binding signal (z-score),[4],-0.083
same,glycan array binding signal (z-score),[5],-0.013
same,glycan array binding signal (z-score),[6],-0.072
same,glycan array binding signal (z-score),[7],-0.042
same,glycan array binding signal (z-score),[8],-0.054
same,glycan array binding signal (z-score),[9],-0.084
same,glycan array binding signal (z-score),[10],-0.046
same,glycan array binding signal (z-score),[11],-0.061
same,glycan array binding signal (z-score),[12],-0.079
same,glycan array binding signal (z-score),[13],-0.039
same,glycan array binding signal (z-score),[14],-0.075
same,glycan array binding signal (z-score),[15],-0.068
same,glycan array binding signal (z-score),[16],-0.063
same,glycan array binding signal (z-score),[17],-0.059
same,glycan array binding signal (z-score),[18],-0.078
same,glycan array binding signal (z-score),[19],-0.076
same,glycan array binding signal (z-score),[20],-0.028
same,glycan array binding signal (z-score),[21],-0.071
same,glycan array binding signal (z-score),[22],-0.017
same,glycan array binding signal (z-score),[23],-0.042
same,glycan array binding signal (z-score),[24],-0.058
same,glycan array binding signal (z-score),[25],-0.083
same,glycan array binding signal (z-score),[26],-0.055
same,glycan array binding signal (z-score),[27],-0.066
same,glycan array binding signal (z-score),[28],-0.058
same,glycan array binding signal (z-score),[29],-0.054
same,glycan array binding signal (z-score),[30],-0.072
